The campaign covered roughly 270,000 compounds. About 5,800 (2.1%) were called active. The shares of active, inactive and inconclusive entries below differ from those in the screen. Calls follow the shape of the dose curve; as a rule, active = well fitted inhibition curve with a large enough effect; inconclusive = small, poorly fitted or top-dose-only effect; inactive = flat fitted curve, though single readings scatter. A potency beside an inconclusive call is a rough fit, not a confirmed value.
Each compound was assayed against Microtubule-associated protein tau (Homo sapiens) (UniProt P10636) (assay: qHTS for Inhibitors of Tau Fibril Formation, Thioflavin T Binding). Settings: recombinant tau K18 P301L (four-repeat tau fragment), heparin-induced fibrillization, ThT fluorescence; series mostly up to 57.4 µM; activity, negative = inhibition: at the top concentration.
Summary of the method: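 Tau K18 P301L fragment (15 uM unlabeled plus 0.24 uM Alexa 594-labeled) in 100 mM sodium acetate pH 7 with compound, fibrillization induced by 20 uM heparin for 6 hr at 37 C. Thioflavin T (30 uM) added, fluorescence read after 1 hr (ex 450, em 510 nm).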
% is scaled to controls: 0 for no effect and ±100 for the full control effect; potency is read from the fitted curve at half-maximal effect; tags tell the direction and shape of the fitted curve.
Also: nearly all actives have a fitted effect of over 55% in size.

Chain of UniProt P10636 (P10636 whole entry, looked up, the tested form may be a part): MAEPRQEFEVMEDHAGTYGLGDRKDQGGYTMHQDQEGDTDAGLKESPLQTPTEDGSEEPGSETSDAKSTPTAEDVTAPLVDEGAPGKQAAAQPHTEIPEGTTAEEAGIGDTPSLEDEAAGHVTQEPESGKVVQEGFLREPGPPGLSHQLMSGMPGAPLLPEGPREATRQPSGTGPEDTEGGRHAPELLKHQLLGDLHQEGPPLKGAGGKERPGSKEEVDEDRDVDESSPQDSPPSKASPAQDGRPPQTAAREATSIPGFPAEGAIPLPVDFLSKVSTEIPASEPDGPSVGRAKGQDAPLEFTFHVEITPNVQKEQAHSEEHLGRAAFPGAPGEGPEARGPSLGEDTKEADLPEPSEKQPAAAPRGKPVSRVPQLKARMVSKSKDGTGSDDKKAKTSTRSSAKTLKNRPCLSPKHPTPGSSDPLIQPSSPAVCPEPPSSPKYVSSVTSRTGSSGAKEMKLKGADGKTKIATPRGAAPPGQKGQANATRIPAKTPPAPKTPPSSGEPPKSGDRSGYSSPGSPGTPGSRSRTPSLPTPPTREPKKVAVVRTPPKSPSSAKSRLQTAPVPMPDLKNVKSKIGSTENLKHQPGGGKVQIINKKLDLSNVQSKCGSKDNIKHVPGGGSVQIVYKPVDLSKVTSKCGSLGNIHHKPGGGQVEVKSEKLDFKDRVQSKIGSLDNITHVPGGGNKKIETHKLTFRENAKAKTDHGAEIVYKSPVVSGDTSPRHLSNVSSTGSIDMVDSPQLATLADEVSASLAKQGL

| SMILES | activity, negative = inhibition | Potency |
| --- | --- | --- |
| COc1ccc(-c2cc3ccc(O)c(CN4CCOCC4)c3oc2=O)cc1OC | inactive: 5.4% |  |
| CCOC(=O)c1ccccc1NC(=O)c1cncc(Br)c1 | inactive: 9.65% |  |
| CCOc1ccc(C(=O)N2CCC(c3nc4ccccc4o3)CC2)cc1 |  | inconclusive: 39.8 µM [inhibitor, single point] |
| CCOc1ccc(OCC)c(NC(=O)c2nnn(CC(=O)Nc3ccc(C)cc3C)c2N)c1 | inactive: -0.0355% |  |
| COC(=O)c1c(NC(=O)c2ccc(C)cc2)csc1C |  | inconclusive: 11.2 µM [inhibitor, partial curve] |
| O=C(NC1CCCC1)c1cnn2c(C(F)(F)F)cc(-c3ccc4c(c3)OCO4)nc12 | inactive: -5.93% |  |
| Cc1ccc(S(=O)(=O)Nc2ccc(Cl)cc2C(=O)c2ccc(F)cc2)cc1 |  | inconclusive: 15.8 µM [inhibitor, partial curve, poor fit] |
| Cc1cc(N2CCCCC2)nc2ccc(NC(=O)c3cccc(Cl)c3)cc12 |  | active: 10 µM |
| CCN1CCN(c2cc(C)c3cc(NC(=S)N4CCCCC4)ccc3n2)CC1 |  | inconclusive: 14.1 µM [inhibitor, partial curve] |
| COc1ccc(-n2c(=O)c3ccccc3c3ccccc3c2=O)cc1 |  | inconclusive: 25.1 µM [inhibitor, partial curve] |
| Cc1ccc(CNC(=O)c2ccc(Cn3nc(C)c(Cl)c3C)o2)cc1 |  | inconclusive: 31.6 µM [inhibitor, partial curve] |
| CCOc1ccccc1C(=O)Nc1ccc2nc(N(CC)CC)cc(C)c2c1 |  | inconclusive: 1 µM [inhibitor, full curve] |
| Cc1[nH][nH]c(=O)c1C(c1ccc(-c2ccc(Cl)cc2Cl)o1)c1c(C)[nH][nH]c1=O |  | active: 11.2 µM |
| CC(C)(CN1CCC(Cc2ccccc2)CC1)NS(=O)(=O)c1ccccc1 | inactive: -8.91% |  |
| O=C(COC(=O)/C=C/c1ccc(F)cc1)NCc1ccco1 | inactive: -2.19% |  |
| CC(C)CCSc1cc(NCCO)c([N+](=O)[O-])c2nonc12 |  | inconclusive: 28.2 µM [inhibitor, partial curve] |
| CCC(=C(c1ccc(OC)cc1)c1ccc(OC)cc1)c1cn(CC(O)CN(CCO)CCO)c2ccccc12 (centres undefined) |  | inconclusive: 31.6 µM [inhibitor, single point] |
| O=C(Nc1ccc2c(c1)OCCO2)c1cnccn1 |  | inconclusive: 17.8 µM [inhibitor, partial curve] |
| COc1ccc(-n2c(=O)c3c4c(sc3n(Cc3ccc(F)cc3)c2=O)CCCC4)c(OC)c1 | inactive: -13.7% |  |
| Cc1cccc(C(=O)Nc2nc(C)c(C(=O)Nc3ccc4c(c3)CCC4)s2)c1 |  | inconclusive: 4.47 µM [inhibitor, full curve, poor fit] |
| O=S(=O)(Nc1nc2ccccc2nc1Nc1ccc2c(c1)OCCO2)c1cccs1 |  | active: 12.6 µM |
| O=c1c(-c2cc3ccccc3o2)[n+]([O-])c2ccccc2n1OCc1ccccn1 |  | inconclusive: 3.98 µM [inhibitor, full curve] |
| CCc1ccc(NC(=O)C(=S)NC2CCCCC2)cc1 |  | inconclusive: 22.4 µM [inhibitor, partial curve] |

| SMILES | activity, negative = inhibition | Potency |
| --- | --- | --- |
| Oc1ccc2c(c1)oc1cc(O)ccc12 |  | inconclusive: 15.8 µM [inhibitor, partial curve] |
| Cc1nc2c(C(=O)NCCC3=CCCCC3)c[nH]n2c(=O)c1Cl |  | inconclusive: 31.6 µM [inhibitor, partial curve] |
| COCCn1c(=NC(=O)C(C)(C)C)sc2cc([N+](=O)[O-])ccc21 | inactive: -9.15% |  |
| CC1CCN(c2cc(N3CCC(C)CC3)c([N+](=O)[O-])cc2/C=C(\C#N)c2nn(-c3ccccc3)c(N)c2C#N)CC1 |  | inconclusive: 8.91 µM [inhibitor, full curve] |
| Cc1cc(-c2csc(NC(=O)c3ccc(=O)[nH]c3)n2)c(C)n1Cc1ccco1 |  | active: 3.98 µM |
| Cc1cccc(C(=O)Nc2ccc3nc(SCC(=O)N4CCc5ccccc54)sc3c2)c1 |  | inconclusive: 1 µM [inhibitor, full curve] |
| COc1ccc(OC)c(-c2nnc3n(CCc4ccccc4)c(=O)c4ccccc4n23)c1 | inactive: -2.06% |  |
| O=C1NC(c2ccc(-c3ccccc3[N+](=O)[O-])o2)C(C(=O)c2ccccc2)C(O)(C(F)(F)F)N1 (centres undefined) |  | inconclusive: 15.8 µM [inhibitor, partial curve] |
| CNCCCCc1cnc(C)c2[nH]c3ccccc3c12 | inactive: -10.2% |  |
| COc1ccccc1NS(=O)(=O)/C=C/c1ccccc1 | inactive: -9.66% |  |
| O=C(Cc1ccccc1)Nc1sc2c(c1C(=O)Nc1ccccc1Cl)CCCC2 |  | inconclusive: 39.8 µM [inhibitor, single point] |
| COc1ccc(NC(=O)CSC2=NCCN2)cc1 |  | inconclusive: 14.1 µM [inhibitor, partial curve] |
| COc1ccc(N2CCN(C(=O)CCc3ccc(S(=O)(=O)NCC(C)C)cc3)CC2)cc1 | inactive: 2.81% |  |
| CCOc1ccc(CNC(=S)N/N=C/c2ccc(OC)c(OC)c2)cc1 | inactive: -7.8% |  |
| CCOc1ccc(/C=N/NC(=S)NC2CC3CCC2C3)cc1 (centres undefined) |  | inconclusive: 8.91 µM [inhibitor, single point] |
| CN(C)C(=O)/C(=C\c1ccc(-c2cccc([N+](=O)[O-])c2)o1)NC(=O)c1ccccc1 |  | inconclusive: 22.4 µM [inhibitor, partial curve] |
| CN1C(=S)N(c2cccnc2)C(=O)/C1=C\c1ccc(C(C)(C)C)cc1 |  | inconclusive: 39.8 µM [inhibitor, single point] |
| N=C1S/C(=C\c2ccco2)C(=O)N1c1nccs1 |  | active: 15.8 µM |
| CC1CCc2c(sc(N)c2C(=O)OC(C)C)C1 (centres undefined) |  | inconclusive: 20 µM [inhibitor, partial curve] |
| Cc1cccc(N=C2NC(=O)S/C2=C\c2ccco2)c1 |  | inconclusive: 8.91 µM [inhibitor, partial curve] |
| COc1ccc(NC(=O)c2ncoc2-c2ccco2)cc1Cl |  | inconclusive: 0.501 µM [inhibitor, full curve, poor fit] |
| O=C(Oc1ccc2c(=O)c(Oc3ccc4ccccc4c3)coc2c1)c1ccco1 |  | inconclusive: 15.8 µM [inhibitor, partial curve] |
| CN(C)/C=C/C(=O)c1ccc(S(=O)c2ccccc2)cc1 (centres undefined) |  | inconclusive: 28.2 µM [inhibitor, partial curve] |

| SMILES | activity, negative = inhibition | Potency |
| --- | --- | --- |
| COc1ccc(NC(=O)c2cc(C(C)=O)n3ccccc23)cc1Cl | inactive: -12.7% |  |
| COc1ccc(Cl)cc1NC(=S)N(Cc1ccccc1C)CC1CCC(C(=O)O)CC1 (centres undefined) | inactive: -11.5% |  |
| O=c1oc(-c2ccccc2NS(=O)(=O)c2ccc(F)cc2)nc2ccccc12 |  | inconclusive: 2.51 µM [inhibitor, partial curve] |
| COc1ccc(-c2csc(NS(=O)(=O)c3ccc([N+](=O)[O-])cc3)n2)cc1 |  | inconclusive: 12.6 µM [inhibitor, partial curve] |
| O=[N+]([O-])c1cccnc1Oc1ccc(C2SCCS2)cc1 |  | inconclusive: 25.1 µM [inhibitor, single point] |
| Cc1sc(N)c(C(=O)c2ccccc2)c1C |  | inconclusive: 31.6 µM [inhibitor, single point] |
| Cc1ccc(C)c(Nc2nn3c(=O)c4ccc(C(=O)N(C)Cc5ccccc5)cc4nc3s2)c1 |  | inconclusive: 39.8 µM [inhibitor, single point] |
| N#C/C(=C(/O)Cc1cccc2ccccc12)c1nc2ccccc2s1 |  | inconclusive: 2.82 µM [inhibitor, full curve] |
| CCc1nc(N2CCN(c3nc(C)cc(C)n3)CC2)c2oc3ccccc3c2n1 |  | inconclusive: 10 µM [inhibitor, partial curve, poor fit] |
| Cc1cnc(C(=O)Nc2ccc(N3CCN(C(=O)OC(C)(C)C)CC3)cc2)cn1 |  | active: 1.78 µM |
| COc1ccccc1C1CC(c2c(-c3ccccc3)c3cc(Cl)ccc3[nH]c2=O)=NN1S(C)(=O)=O (centres undefined) | inactive: -10.6% |  |
| CCCCC[C@H](O)/C=C/C=C\C=C\[C@@H](O)C/C=C\CCCC(=O)O | inactive: -4.43% |  |
| COc1ccc(NC(=O)COc2ccc3oc(=O)cc(C)c3c2)cc1 |  | inconclusive: 2.51 µM [inhibitor, partial curve] |
| Cc1sc(NC(=O)c2ccco2)c(C(=O)c2ccc(Cl)cc2)c1C |  | inconclusive: 12.6 µM [inhibitor, partial curve, poor fit] |
| CCN(CC)CCC(c1ccc2c(c1)OCO2)c1c(OC)cc(OC)c2c(-c3ccccc3)cc(=O)oc12 (centres undefined) |  | inconclusive: 22.4 µM [inhibitor, single point] |
| COc1ccc(CNC(=O)c2ccc(NC(=O)N3CCSc4ncccc43)cc2)c(OC)c1 | inactive: -6.98% |  |
| Nc1nc2ccccc2nc1N1CCCC1 |  | inconclusive: 39.8 µM [inhibitor, single point] |
| Cc1cccc(-c2nc(CS(=O)CC(=O)NC3CCCC3)c(C)o2)c1 (centres undefined) |  | inconclusive: 35.5 µM [inhibitor, single point] |
| CC(NC(=O)/C=C/c1ccco1)c1nc2ccccc2n1Cc1cccc(Cl)c1 (centres undefined) | inactive: -11% |  |
| Cc1ccc(C(=O)Nc2ccc(Br)c(C(F)(F)F)c2)cc1 |  | inconclusive: 39.8 µM [activator, single point] |
| O=[N+]([O-])c1cccc2c[nH]nc12 |  | inconclusive: 15.8 µM [inhibitor, partial curve] |
| C/C=C/c1ccc(OCC(=O)Nc2ccc(OC)c(OC)c2)c(OC)c1 |  | inconclusive: 6.31 µM [inhibitor, partial curve] |
| COCCCn1c(SCc2nnc(-c3ccccc3)o2)nc2sc3c(c2c1=O)CCC3 |  | inconclusive: 17.8 µM [inhibitor, partial curve] |

Source: PubChem BioAssay AID1460 (National Center for Advancing Translational Sciences (NCATS), 2008)
